In PubChem BioAssay AID1963576 (National Center for Advancing Translational Sciences (NCATS), 2024):
The campaign covered roughly 46,000 compounds. About 60 (0.1%) were called active. Another 3% or so got no clear call; they are omitted. The call rests on the fitted dose curve; in most records, active means well fitted inhibition curve with a large enough effect; inconclusive means small, poorly fitted or top-dose-only effect; inactive means no such curve, though single readings can be large or run the other way. The list shows a part of the results.

Assay: Primary qHTS assay for Inhibitors of ovarian cancer metastasis using an organotypic tumor microenvironment (TME) model. Further: nearly all actives have a fitted effect of over 65% in size.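 On activity change, negative = inhibition: plate controls were DMSO wells for no effect and tomatine positive control wells for full effect.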
Conditions: SKOV3ip1-GFP adhesion/invasion on 3D omental model, fluorescence; series mostly up to 45.8 µM; activity change, negative = inhibition: at the top concentration
Outline: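 A 3D layer of primary human omental fibroblasts, mesothelial cells, fibronectin and collagen I, grown 48 hr, received SKOV3ip1-GFP cells in serum-free medium plus compounds at 0.36-46 umol/L. After 2 hr RT and 16 hr 37 C, fixed adherent GFP cells were counted; normalized to DMSO and tomatine.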

Activity change, negative = inhibition, inactive:
Cc1cc(C)c(NC(=O)CSc2nc3ccccc3c3nc(-c4ccccc4)nn23)c(C)c1 -6.25%
CCc1ccc(C(c2ccccc2)c2c(C)[nH]c3ccccc23)s1 (centres undefined) -3.06%
Cc1cccc(CNC(=O)c2ccc3c(c2)N(C)CCS3)c1 -0.286%
CCOc1ccc(C2C(=O)N(C3CCCCC3)CC(=O)N2Cc2ccc(F)cc2)cc1OC (centres undefined) -8.16%
COc1ccc(N2CCN(c3ncccc3-c3nc(-c4ccccc4C)no3)CC2)cc1 -2.66%
COc1ccc(CNCc2c(C(=O)O)c(C)n(Cc3ccccc3C)c2C)cc1OC 3.53%
CCOC(=O)c1sc2ccccc2c1S(=O)(=O)Nc1cc(OC)ccc1OC -2.16%
COc1ccc(Cn2c(SCc3ccc(C(=O)NC4CCCCC4)cc3)nc3ccncc32)cc1 3%
CCc1cccc(C)c1Nc1c(-c2ccc(F)cc2)nc2sccn12 18.1%
O=C1c2[nH]nc(-c3ccccc3O)c2C(c2cccc(OCc3ccccc3)c2)N1CCCO (centres undefined) 2.01%
Fc1ccc(N2CCN(Cc3nnc(-c4ccccc4Cl)o3)CC2)cc1 -17%
COc1ccccc1N1CCN(c2nc3c(S(=O)(=O)c4ccccc4)nnn3c3ccc(Cl)cc23)CC1 1.32%
CCOC(=O)c1scc(-c2ccccc2)c1S(=O)(=O)Nc1ccccc1OC 2.19%
N#Cc1nc(-c2ccc(COc3ccc(Cl)cc3)o2)oc1N1CCCCC1 0.0826%
Cc1ccc(CNc2nc(-c3ccco3)nn2C(=O)c2ccccc2[N+](=O)[O-])cc1 10.9%
Cc1ccc2c(=O)c(C(=O)c3ccccc3)cn(CC(=O)NCc3ccccc3)c2n1 2.76%
CCNc1cc(NC2CCC(O)CC2)nc(Nc2ccc3c(ccn3Cc3ccccc3)c2)n1 (centres undefined) -6.8%
CC(C)OCCCNC(=O)c1cn(C)c2ccc(S(=O)(=O)N(C)C3CCCCC3)cc2c1=O 0.0783%
COc1ccc(S(=O)(=O)N2CCC(Oc3cccc(C(F)(F)F)c3)CC2)cc1OC 5.84%
COc1ccc(N2CC(C(=O)NCCS(=O)(=O)N3CCN(c4ccccc4)CC3)CC2=O)cc1 (centres undefined) 3.73%
Cc1ccc(-n2c(=O)c3c(C)c(C(=O)N(C)C)sc3n(CC(=O)N(C)c3ccccc3)c2=O)cc1C -2.06%
CCOC(=O)c1cc(-c2ccccc2)n(CCCC(=O)Nc2ccc(C)c(Cl)c2)c1C -4.15%
CN(CC(=O)Nc1ccc(OC(F)(F)F)cc1)S(=O)(=O)c1ccc2c(c1)CCC(=O)N2 2.05%
Cc1c(C(=O)N2CCCC2)oc2c1-c1nn(CC(=O)NCc3ccc(OC(C)C)cc3)cc1CC2 -20.9%
COc1ccc(-c2csc3nc(-c4ccc(Cl)cc4)oc(=O)c23)cc1 7.53%
CCN(C(=O)CSc1nc2ccccc2c2nc(CCn3c(C)nc4ccccc43)nn12)c1cccc(C)c1 -6.91%
CCN(CC)S(=O)(=O)c1ccc2c(c1)N(CC(=O)N1CCN(c3cccc(C)c3)C(C)C1)C(=O)CO2 (centres undefined) 1.8%
COc1cc(C(=O)NC2(C(F)(F)F)C(=O)NC(C)=C2C#N)cc(OC)c1OC (centres undefined) 6.57%
CCc1cccc(C)c1NC(=O)CN1CCN(Cc2ccccc2Cl)S1(=O)=O -3.05%
COc1ccc(NC(=O)CSc2nnc(N)s2)cc1 1.25%
Cc1ccc(Nc2c(-c3ccc(N4CCOCC4)cc3)nc3ccc(C)cn23)cc1 1.55%
CC(=O)c1ccc(N2CCN(C(=O)Nc3ccc(C)cc3)CC2)cc1 -1.02%
Cc1ccc(CNC(=O)CCCn2c(=O)c3ccccc3n(CC(=O)C(C)(C)C)c2=O)cc1 -2.45%
COc1cc(NC(=O)C(CC(C)C)NS(=O)(=O)c2ccc3c(c2)CCCC(=O)N3)cc(OC)c1 (centres undefined) 7.38%
Cc1oc2c(c1C(=O)NCc1cccc(Br)c1)C1=NCCN1C=N2 -18.8%
COc1cccc(NC(=O)c2sc3nc(N4CCOCC4)c4c(c3c2N)CC(C)(C)OC4)c1 18.3%
COc1cc(C)c(Cl)cc1S(=O)(=O)NCCc1c(C)[nH]c2ccccc12 19.9%
Cc1ccc(C)c(N2CCN(C(=O)c3cnc4c(-c5ccccc5)c(C)nn4c3C)CC2)c1 1.65%
COc1cccc(NC(=O)Cn2cc(C(=O)C3CCCCC3)c3ccccc32)c1 3.03%
CCOC(=O)c1c(NC(C)=O)c2c3c(sc2n1Cc1nc(-c2ccccc2OCC)oc1C)CCCC3 9.32%
COc1ccc(CNC(=O)c2cc3c(-c4ccccc4F)nn(C)c3s2)c(OC)c1 -13.7%
COc1ccccc1N1CCN(C(=O)C2CCN(S(=O)(=O)c3cnc[nH]3)CC2)CC1 2.3%
COc1ccc(CNC(=O)CN(c2ccc(C)cc2)S(=O)(=O)c2c(C)n[nH]c2C)cc1 1.19%
COc1ccc2oc(=O)c(-c3csc(/C(C#N)=C/c4ccc(F)cc4)n3)cc2c1 10.7%
O=c1cc(CSc2ncn[nH]2)[nH]c2c(Cl)cccc12 2.44%
Cc1ccc2c(c1)N(C(=O)CCC(=O)Nc1ccccc1Cl)CC(C)O2 (centres undefined) -19.9%
CCN(CC)c1ccc(C(=O)NCc2ccc3c(c2)CCN3C(=O)c2ccccc2)cc1 6%
CCN1CCC(N(Cc2cccc(OC)c2)C(=O)Nc2cccc(C(F)(F)F)c2)CC1 -19.8%
O=C(Nc1ccc(-c2cc(C(F)(F)F)nn2-c2ccccc2)cc1)c1cccc(F)c1 -4.6%
CCOC(=O)c1c(NC(=O)c2cc(CC)on2)sc(C)c1C 0.858%
CC1CCCN(C(=O)Cn2c(=O)oc3cc(S(=O)(=O)N4CCCCC4)ccc32)C1 (centres undefined) 6.69%
CCOC(=O)c1c(C)[nH]c(C)c1S(=O)(=O)NCC(=O)Nc1cccc(C(F)(F)F)c1 -17.2%
CC1=C(C(=O)Nc2ccccc2C)C(c2cccnc2)n2nc(SCc3ccccc3)nc2N1 (centres undefined) 0.492%
COCCNC(=O)Cn1cc(S(=O)(=O)Cc2ccccc2Cl)c2ccccc21 5.02%
CCOC(=O)N1CCc2c(sc3c2c(=O)n(CCc2ccccc2)c(=O)n3Cc2cc(C)ccc2C)C1 6.26%
Cc1ccc(NC(=O)C(Cc2ccccc2)NS(=O)(=O)c2ccc3c(c2)oc(=O)n3C)c(Cl)c1 (centres undefined) -0.451%
COc1ccccc1NC(=O)c1cc(S(=O)(=O)N(C)C2CCCCC2)ccc1F -6.5%
Cc1ccc(-c2nnc(Nc3ccc(Br)cc3)c3ccccc23)cc1S(=O)(=O)N1CCOCC1 -7.42%
COc1ccc(-n2c(=O)c3sc4ccccc4c3n(CC(=O)Nc3cccc(C)c3)c2=O)cc1 -6.15%
CCN(CC)S(=O)(=O)c1ccc2c(c1)N(CC(=O)NCCc1ccc(OC)c(OC)c1)C(=O)CO2 8.06%
CCOc1ccccc1NC(=O)c1cn(C2CCCC2)c(=O)c2c1c1ccccc1n2C -18.9%
COC(=O)c1c(NC(=O)c2cccc(OC)c2)sc2c1CCC(C(C)(C)C)C2 (centres undefined) -9.07%
COc1ccccc1CNc1nc2nc(C)c(Cl)c(C)n2n1 4.83%
COc1cc(OC)c(Nc2nc3ccc(C)cc3n3nnnc23)cc1Cl 6.4%
COc1ccc(-c2cc(=O)n3[nH]cnc3n2)cc1 -2.53%
O=C(CCC(=O)N1CC2CCCN2c2ccccc21)NCc1ccccc1Cl (centres undefined) -7.58%
CC1CCCN(S(=O)(=O)c2cc3c(cc2Cl)NC(=O)CO3)C1 (centres undefined) 15.9%
Cc1nnc(NC(=O)CSc2nccn2-c2cccc(Cl)c2)s1 -6.84%
Cc1ccc(NC(=O)N2CCC(N3CCN(Cc4ccccc4)C(=O)C3=O)CC2)cc1Cl 0.969%
COc1ccc(N2CCN(c3ccc(-c4nc(-c5ccccc5C)no4)cc3[N+](=O)[O-])CC2)cc1 3.82%
Cc1cccc(-c2nc(SCC(=O)Nc3cc(C)on3)c3c(=O)n(C)c(=O)n(C)c3n2)c1 3.03%
Cc1ccccc1CCNC(=O)c1ccc2c(c1)c(C)c(C)n2C -1.11%
CN(C)S(=O)(=O)c1ccc2c(c1)N(CC(=O)NCc1ccccc1)C(=O)C1CCCCN21 (centres undefined) -0.82%

outcome, inactive:
COc1ccc(CNS(=O)(=O)c2ccc(C(=O)N(C)C)s2)cc1
CCOc1ccc(NC(=O)CSc2ncc(S(=O)(=O)c3ccc(F)c(C)c3)c(=O)[nH]2)cc1
Cc1ccc(C)c(NC(=O)CSc2nc3nccnc3c(=O)n2CCc2c[nH]c3ccccc23)c1
Cc1ccc2occ(-c3cc(-c4ccccc4)nc4c3COc3ccccc3-4)c(=O)c2c1
CCc1cccc(NC(=O)c2cnc(N3CCOCC3)c3ccccc23)c1
Cc1cccc(NC(=O)CCn2cnnn2)c1
CCc1ccc(NC(=O)Cn2c(=O)c3cccn3c3ccccc32)cc1
Cn1c(=O)oc2cc(S(=O)(=O)NC(CC(=O)O)c3cccc(Br)c3)ccc21 (centres undefined)
CCOC(=O)Cn1c(=O)n(CC2CCCO2)c2nc(-c3ccc(OC)cc3OC)nc(C(N)=O)c21 (centres undefined)
Cc1cccc(NC(=O)NCCn2c(=O)oc3ccc(C)cc32)c1
COc1cccc(CNC(=O)CN2C(=O)N(c3cc(C)ccc3C)S(=O)(=O)c3ccccc32)c1OC
Cc1ccc(C)c(CN2C(=O)c3ccccc3S(=O)c3ccc(C(=O)NCc4ccccc4Cl)cc32)c1 (centres undefined)
Cc1ccc(/C=C(\C#N)C(=O)Nc2cc(C)ccc2C)cc1
CCOc1ccc(NC(=O)Cn2c(=O)n(-c3ccc(C)cc3)c(=O)c3cc(OC)c(OC)cc32)cc1
Brc1ccccc1-n1ncc2c1ncn1nc(Cc3ccccc3)nc21
CCOc1ccc(C2c3c(-c4ccc(C)cc4)n[nH]c3C(=O)N2c2ccc(Cl)cc2)cc1 (centres undefined)
O=C(CSc1nnc(NC(=O)NC2CCCCC2)s1)Nc1ccccc1F
COc1ccccc1NC(=O)C1=C(C)Nc2nc(SCc3ccccc3)nn2C1c1ccccn1 (centres undefined)
COc1ccc(C(=O)Nc2ccccc2C(=O)OCc2cc(=O)n3c4c(sc3n2)CCCC4)cc1
Cc1nc2c(c(C)c1CCC(=O)Nc1cccc(C(F)(F)F)c1)c(=O)n(C)c(=O)n2C
COC(=O)c1cc2oc3ccccc3c2n1Cc1cccc(C)c1
